# Test results reported in patent US12479866B2, “Boron-containing rho kinase inhibitors” (Percipiad, Inc., priority 2019, dated 2025).
# pIC50: −log10 of the molar value.
# Tests used:
# ROCK2 = ROCK2 (Homo sapiens (Human), UniProt O75116); experiment: ROCK2 ADP-Glo kinase enzyme inhibition assay; type: biochemical; conditions: Exp #2
# Description: (§1) We measured ROCK and PKA kinase enzyme activity inhibition by compounds using commercially available ROCK1 (Promega Corporation, cat #V9581), ROCK2 (Promega, cat #V4045), and PKA kinase (Promega, cat #V4247) ADP-Glo™ assay kits. ADP-Glo™ Kinase Assay is a luminescent ADP detection assay that provides a homogeneous method to measure kinase activity by quantifying the amount of ADP produced during a kinase reaction. The assay is performed in two steps. First, after the kinase reaction, an equal volume of ADP-Glo™ Reagent is added to terminate the kinase reaction and deplete the remaining ATP. Second, the Kinase Detection Reagent is added to simultaneously convert ADP to ATP and allow the newly synthesized ATP to be measured using a luciferase/luciferin reaction. The light generated is measured using a luminometer. A complete protocol is included with the kits and is also available at the Promega website. The assay is briefly described below. • 1. Diluted enzyme, substrate, ATP, and compounds (inhibitors) in Kinase Buffer (40 mM Tris, 7.5, 20 mM MgCl2, 0.1 mg/ml BSA, 50 μM DTT). • 2. […]
# (§2) Recorded luminescence (Integration time 1 second) using a plate-based luminometer.
# (§3) Calculated Percent Enzyme Activity: First subtract the signal of the negative control (no enzyme and no inhibitor) from each sample's signal. […]
# PKA = PKA (Homo sapiens (Human), UniProt P17612); experiment: PKA ADP-Glo kinase enzyme inhibition assay; type: biochemical; conditions: read-out: PKAIC50
# Description: as §1, §2, §3
# [1] = biological target: PKA-NanoLuc fusion protein (Homo sapiens (Human), UniProt P17612); experiment: PKA-NanoBRET Target Engagement Intracellular Kinase Assay in HEK293 cells; type: cell-based; conditions: live HEK293 cells, 2 hours; read-out: Estimated IC50, inhibition of NanoBRET tracer binding to PKA
# Description: NanoBRET™ TE assay is based on the NanoBRET™ System, an energy transfer technique designed to measure molecular proximity in living cells. The NanoBRET™ TE assay measures the apparent affinity of test compounds by competitive displacement of the NanoBRET™ tracer, reversibly bound to a NanoLuc® luciferase-kinase fusions in cells. Using the NanoBRET™ TE Kinase Assay, a fixed concentration of tracer is added to cells expressing the desired NanoLuc® kinase fusion to generate a BRET signal. […] Centrifuged culture, resuspended cells in fresh culture media, and dispense 85 ul in to wells of 96-well plate. • 3. […] Added 10 μl of 10× serially diluted inhibitor compound per well containing cells with IX NanoBRET Tracer Reagent. Thoroughly mixed plate on an orbital shaker for 15 seconds at 700 rpm. • 5. […] Equilibrated plate to room temperature for ˜15 minutes. • 6. […] Measured donor emission wavelength (450 nm) and acceptor emission wavelength (610 nm) using the GloMax® Discover System (Promega). To generate raw BRET ratio values, divided the acceptor emission value (610 nm) by the donor emission value (450 nm) for each sample.
# hTM cells = experiment: hTM cell morphology changes (microscopy); conditions: 10 μM, 20 hours
# [2] = system: New Zealand White rabbits; conditions: 0.1 ml, 20 mg/ml in saline
# Source text: The right eye that was not treated served as the control. […] The eyes of initial and confirmatory test animals were examined with slit lamp for ocular lesions. […] The animals were also observed for clinical signs of toxicity, morbidity and mortality.
# HEK293 cells = experiment: CellTiter-Glo Luminescent Cell Viability Assay; conditions: HEK293 cells, 25, 2.5, or 0.25 μM, two days
# Phospho-MYPT1 Thr853 = experiment: Inhibition of MYPT1 phosphorylation in human trabecular meshwork (hTM) cells, western blot
# Description: The outflow of aqueous humor across the trabecular meshwork (TM) is regulated by, among other factors, actomyosin contraction of the TM cells and altered extracellular matrix. ROCK is known to inhibit the phosphatase activity of myosin light chain phosphatase (MLCP) by phosphorylating MYPT1 at amino acids Thr696 and Thr853. […] Media with inhibitors was suctioned off, wells washed 2 times with cold PBS pH 7.4 buffer, and attached cells were scrapped off with 500 μl (T75 flasks) or 100 μl (6-well plates) SDS-PAGE sample buffer, and collected into 1.5 ml microcentrifuge tubes. • 5.
# Two days before compound addition 6-well plates were seeded at a density of 75,000 cells/well. On the day of compound addition media was replaced with 3 ml fresh media containing compounds at different concentration. Fifteen hours after compound addition cells in each well were lysed with 0.2 ml extraction buffer (SDS-PAGE sample buffer containing […] and protease inhibitors) and extracts were collected.
# Compounds (10 μM) were added to hTM cells cultured in 60 mm plates and cell extracts collected after […]. Cells were lysed with 0.2 ml lysis buffer and 20 μl extract was loaded in each lane (FIG. 7).
# PRKG1 = PRKG1 (Homo sapiens (Human), UniProt Q13976); experiment: AGC Kinase Selectivity Profiling (ADP-Glo); type: biochemical; conditions: 1 μM compound; AGC Panel; read-out: Percent enzyme activity inhibition, PRKG1
# Source text: (§4) ROCK1 (also called ROCK I, ROKβ, Rho-kinase β, or p160ROCK) and ROCK2 ((also known as ROCK II, ROKα, or Rho kinase) belong to AGC family of serine/threonine kinases. The group of AGC kinases consists of 63 evolutionarily related serine/threonine protein kinases comprising PDK1, PKB/Akt, SGK, PKC, PRK/PKN, MSK, RSK, S6K, PKA, PKG, DMPK, MRCK, ROCK, NDR, LATS, CRIK, MAST, GRK, Sgk494, and YANK, while two other families, Aurora and PLK, are the most closely related to the group (Leroux et al., AGC kinases, mechanisms of regulation and innovative drug development, Semin Cancer Biol. 2018 February; 48:1-17).
# ROCK1 = ROCK1 (Homo sapiens (Human), UniProt Q13464); experiment: AGC Kinase Selectivity Profiling (ADP-Glo); type: biochemical; conditions: 1 μM compound; AGC Panel
# Source text: as §4
# RSK2 = RSK2 (Homo sapiens (Human), UniProt P51812); experiment: AGC Kinase Selectivity Profiling (ADP-Glo); type: biochemical; conditions: 1 μM compound; AGC Panel; read-out: Percent enzyme activity inhibition, RSK2
# Source text: as §4
# PKCb II = PKCb II (Homo sapiens (Human), UniProt P05771); experiment: AGC Kinase Selectivity Profiling (ADP-Glo); type: biochemical; conditions: 1 μM compound; AGC Panel; read-out: Percent enzyme activity inhibition, PKCb II
# Source text: as §4
# PKCa = PKCa (Homo sapiens (Human), UniProt P17252); experiment: AGC Kinase Selectivity Profiling (ADP-Glo); type: biochemical; conditions: 1 μM compound; AGC Panel; read-out: Percent enzyme activity inhibition, PKCa
# Source text: as §4
smiles,measurement,setting,value
"C[C@H]1CNCCCN1S(=O)(=O)c1cccc2cncc(F)c12 [Ripasudil, reference compound]",pIC50,ROCK2,7.05
same,pIC50,PKA,< 6.00
Cl.Cl.NCC(C(=O)Nc1ccc2cnccc2c1)c1ccc(CO)cc1 (racemic) [Netarsudil-M1-racemate.2HCl],pIC50,[1],6.44
same,hTM cell morphology,hTM cells,appeared slightly contracted
same,"clinical signs of toxicity, morbidity and mortality",[2],No treatment-related adverse effects were noticed
same,Cell viability (ATP amount),HEK293 cells,inhibited cell growth only at 25 μM concentration
same,Inhibition of MYPT1 Thr853 phosphorylation (western blot),Phospho-MYPT1 Thr853; 2.5 μM inhibitors,inhibited phosphorylation of MYPT1
same,Inhibition of MYPT1 Thr853 phosphorylation (western blot),"Phospho-MYPT1 Thr853; 10 μM inhibitors, 7 hours",completely inhibited MYPT1 phosphorylation
"Cc1ccc(C(=O)OCc2ccc([C@@H](CN)C(=O)Nc3ccc4cnccc4c3)cc2)c(C)c1.Cl.Cl [Netarsudil•2HCl, Netarsudil, reference compound]",inhibition at 1 µM,PRKG1,82%
same,"Percent enzyme activity inhibition, ROCK1",ROCK1,88%
same,inhibition at 1 µM,RSK2,65%
same,inhibition at 1 µM,PKCb II,45%
same,inhibition at 1 µM,PKCa,65%
O=S(=O)(c1cccc2cnccc12)N1CCCNCC1 [Fasudil],Inhibition of MYPT1 phosphorylation (western blot),"Phospho-MYPT1 Thr853; 10 μM, 24 hours",did not inhibit MYP2 phosphorylation
Cl.Cl.NCC(C(=O)Nc1ccc2cnccc2c1)c1ccc(B(O)O)cc1 (stereo not shown) [Compound 10•2HCl],Inhibition of MYPT1 Thr853 phosphorylation (western blot),Phospho-MYPT1 Thr853; 2.5 μM inhibitors,inhibited phosphorylation of MYPT1
same,Inhibition of MYPT1 Thr853 phosphorylation (western blot),"Phospho-MYPT1 Thr853; 10 μM inhibitors, 7 hours",completely inhibited MYPT1 phosphorylation
